Here are results for 153 variants from a collection of fitness landscapes (doi:10.1126/science.1257360).

This is one part of the list. Some results are limits rather than exact numbers.

To fix the notation:
B1: PhoQ; a variant is named by its letters at X, in order, P23837 (parent)
chain: MKKLLRLFFPLSLRVRFLLATAAVVLVLSLAYGMVALIGYSVSFDKTTFRLLRGESNLFYTLAKWENNKLHVELPENIDKQSPTMTLIYDENGQLLWAQRDVPWLMKMIQPDWLKSNGFHEIEADVNDTSLLLSGDHSIQQQLQEVREDDDDAEMTHSVAVNVYPATSRMPKLTIVVVDTIPVELKSSYMVWSWFIYVLSANLLLVIPLLWVAAWWSLRPIEALAKEVRELEEHNRELLNPATTRELTSLVRNLNRLLKSERERYDKYRTTLTDLTHSLKTPLXXLQXXLRSLRSEKMSVSDAEPVMLEQISRISQQIGYYLHRASMRGGTLLSRELHPVAPLLDNLTSALNKVYQRKGVNISLDISPEISFVGEQNDFVEVMGNVLDNACKYCLEFVEISARQTDEHLYIVVEDDGPGIPLSKREVIFDRGQRVDTLRPGQGVGLAVAREITEQYEGKIVAGESMLGGARMEVIFGRQHSAPKDE

In this assay the parent is B1. Put plainly: enrichment ratio after two sorts for PhoP signalling (ratio (wild type AVST 3.29)); higher = more functional. The conditions noted are these: with PhoP (E. coli).
Consider PNIP, for which the enrichment ratio was not above 0.25.

Consider FCYW, for which the enrichment ratio was not above 0.25.

Turning to QQEL, the enrichment ratio is not above 0.25.

Regarding SCAI, the enrichment ratio was found to be 6.24.

Consider AFKT, for which the enrichment ratio was not above 0.25.

For VFYQ, the enrichment ratio is not above 0.25.

On to VIWH, for which the enrichment ratio was not above 0.25.

Take KEDK: the enrichment ratio is not above 0.25.

Turning to DHNL, the enrichment ratio is not above 0.25.

For PKYV, the enrichment ratio is not above 0.25.

In the case of ICFY, the enrichment ratio is not above 0.25.

With TEDV, the enrichment ratio is not above 0.25.

Turning to HDPD, the enrichment ratio stood at 1.1.

Take EFEA: the enrichment ratio was not above 0.25.

IMWC: the enrichment ratio is not above 0.25.

With TSVE, the enrichment ratio is not above 0.25.

As to VVAY, the enrichment ratio is not above 0.25.

As to QFPQ, the enrichment ratio was not above 0.25.

For the variant QIYV, the enrichment ratio turned out to be 0.3.

Consider NLYI, for which the enrichment ratio is not above 0.25.

Consider EERH, for which the enrichment ratio was not above 0.25.

Turning to FHFI, the enrichment ratio was not above 0.25.

For the variant GWKY, the enrichment ratio was not above 0.25.

Turning to ACVV, the enrichment ratio was not above 0.25.

Take MRVW: the enrichment ratio was not above 0.25.

Take YGWI: the enrichment ratio is not above 0.25.

As for DHPV, the enrichment ratio was not above 0.25.

On to MMIF, for which the enrichment ratio is not above 0.25.

Regarding AWTI, the enrichment ratio is not above 0.25.

As for VHGG, the enrichment ratio is not above 0.25.

For FNIM, the enrichment ratio is not above 0.25.

HQLV: the enrichment ratio was not above 0.25.

For the variant RWEV, the enrichment ratio is not above 0.25.

On to MPPM, for which the enrichment ratio is not above 0.25.

Take WPGS: the enrichment ratio is not above 0.25.

ALTH: the enrichment ratio came out at 5.32.

Turning to TKAD, the enrichment ratio is not above 0.25.

On to WILN, for which the enrichment ratio was not above 0.25.

On to TWSF, for which the enrichment ratio is not above 0.25.

As for RMYP, the enrichment ratio was not above 0.25.

With HNQM, the enrichment ratio is not above 0.25.

As for YYLQ, the enrichment ratio is not above 0.25.

In the case of FVAV, the enrichment ratio was not above 0.25.

Consider HEAN, for which the enrichment ratio was not above 0.25.

For KQYI, the enrichment ratio was not above 0.25.

Regarding DPFP, the enrichment ratio is not above 0.25.

For the variant SHSK, the enrichment ratio is 0.407.

FRNF: the enrichment ratio came to 0.32.

As to IIFF, the enrichment ratio is not above 0.25.

As for VETE, the enrichment ratio is not above 0.25.

Consider PEMW, for which the enrichment ratio was not above 0.25.

In the case of VYLW, the enrichment ratio was not above 0.25.

On to SWGV, for which the enrichment ratio was not above 0.25.

As to FCMY, the enrichment ratio is not above 0.25.

YVTY: the enrichment ratio is not above 0.25.

PQIC: the enrichment ratio was not above 0.25.

Turning to DWYN, the enrichment ratio was not above 0.25.

On to PLPG, for which the enrichment ratio is not above 0.25.

As for RNDM, the enrichment ratio was not above 0.25.

In the case of FLYT, the enrichment ratio is not above 0.25.

For the variant YPLL, the enrichment ratio was not above 0.25.

In the case of PILP, the enrichment ratio was not above 0.25.

In the case of GSMC, the enrichment ratio was determined as 9.78.

SEFM: the enrichment ratio was found to be 7.47.

FQAA: the enrichment ratio is not above 0.25.

TVII: the enrichment ratio was not above 0.25.

Regarding WRAH, the enrichment ratio was not above 0.25.

QCVS: the enrichment ratio was not above 0.25.

Take LVTA: the enrichment ratio was not above 0.25.

With RPGH, the enrichment ratio is not above 0.25.

On to EHDI, for which the enrichment ratio is not above 0.25.

For the variant WLPG, the enrichment ratio is not above 0.25.

For the variant GSIC, the enrichment ratio is 3.78.

For YCGL, the enrichment ratio was not above 0.25.

On to THFE, for which the enrichment ratio was not above 0.25.

In the case of FAYR, the enrichment ratio was not above 0.25.

As for EFML, the enrichment ratio was not above 0.25.

Regarding RCRS, the enrichment ratio was not above 0.25.

In the case of HFFH, the enrichment ratio was not above 0.25.

In the case of IQII, the enrichment ratio was not above 0.25.

With VSKF, the enrichment ratio was not above 0.25.

Consider HSIG, for which the enrichment ratio was not above 0.25.

On to KGRP, for which the enrichment ratio was not above 0.25.

Turning to LEAP, the enrichment ratio is not above 0.25.

As for FAHC, the enrichment ratio is not above 0.25.

In the case of QQDS, the enrichment ratio stood at 6.37.

As for KAHV, the enrichment ratio was not above 0.25.

In the case of STCF, the enrichment ratio stood at 15.9.

With TLCC, the enrichment ratio was determined as 2.25.

With KYPY, the enrichment ratio was not above 0.25.

With FIKI, the enrichment ratio is not above 0.25.

Take YVGY: the enrichment ratio is not above 0.25.

Turning to QNGY, the enrichment ratio was not above 0.25.

As for LRAQ, the enrichment ratio is not above 0.25.

In the case of AGRD, the enrichment ratio is not above 0.25.

As for KQNY, the enrichment ratio was not above 0.25.

Take SWLA: the enrichment ratio stood at 0.478.

For YSLQ, the enrichment ratio is 6.56.

Turning to RHTR, the enrichment ratio is not above 0.25.

Turning to LQKQ, the enrichment ratio is not above 0.25.

NTWA: the enrichment ratio was not above 0.25.

In the case of FPGT, the enrichment ratio was not above 0.25.

As to FRMF, the enrichment ratio was not above 0.25.

For HLGS, the enrichment ratio is not above 0.25.

Consider TYEP, for which the enrichment ratio is not above 0.25.

Take LAMN: the enrichment ratio is 5.37.

On to EGNG, for which the enrichment ratio was not above 0.25.

As to FTWF, the enrichment ratio is not above 0.25.

For DCKY, the enrichment ratio is not above 0.25.

In the case of SDRT, the enrichment ratio came to 2.13.

Take LHCL: the enrichment ratio is not above 0.25.

WVWM: the enrichment ratio is not above 0.25.

For the variant LFCM, the enrichment ratio is not above 0.25.

For the variant VCPE, the enrichment ratio was not above 0.25.

As for DNVY, the enrichment ratio was not above 0.25.

For the variant RCST, the enrichment ratio is not above 0.25.

On to ANIM, for which the enrichment ratio turned out to be 4.25.

Take DWPF: the enrichment ratio is not above 0.25.

Consider YYES, for which the enrichment ratio was not above 0.25.

In the case of HEHG, the enrichment ratio is not above 0.25.

Consider YMSG, for which the enrichment ratio was not above 0.25.

Regarding IVFI, the enrichment ratio was not above 0.25.

With LALS, the enrichment ratio came to 0.926.

As for YPTD, the enrichment ratio was not above 0.25.

Regarding EDFL, the enrichment ratio was not above 0.25.

On to VHEA, for which the enrichment ratio is not above 0.25.

With HWVR, the enrichment ratio is not above 0.25.

As for WQIP, the enrichment ratio is not above 0.25.

LERP: the enrichment ratio is not above 0.25.

As for VQCH, the enrichment ratio was not above 0.25.

As to GNMC, the enrichment ratio is not above 0.25.

With CQSL, the enrichment ratio is not above 0.25.

Consider GCKN, for which the enrichment ratio is not above 0.25.

In the case of TAIF, the enrichment ratio is not above 0.25.

Regarding LILM, the enrichment ratio was not above 0.25.

Take MDQM: the enrichment ratio is not above 0.25.

Turning to FWFR, the enrichment ratio is not above 0.25.

Consider GVWI, for which the enrichment ratio is not above 0.25.

On to TCLQ, for which the enrichment ratio stood at 6.47.

As for KMRY, the enrichment ratio was not above 0.25.

Take SKEA: the enrichment ratio was not above 0.25.

On to WICS, for which the enrichment ratio is not above 0.25.

Turning to VSIL, the enrichment ratio was not above 0.25.

Take DEAN: the enrichment ratio was not above 0.25.

QKLC: the enrichment ratio was not above 0.25.

Turning to MTMA, the enrichment ratio is not above 0.25.

For the variant SKTP, the enrichment ratio was not above 0.25.

Regarding DHLL, the enrichment ratio was not above 0.25.

In the case of NCWR, the enrichment ratio was not above 0.25.

Take TKYW: the enrichment ratio was not above 0.25.

For the variant MWFK, the enrichment ratio is not above 0.25.

For the variant RPFS, the enrichment ratio is not above 0.25.

Turning to SLFH, the enrichment ratio was not above 0.25.
